Reference: patent publication US20230071889A1 (OSE IMMUNOTHERAPEUTICS, published 2023)

T1: CD132 receptor (Sinobiological 10555-H08B) (UniProt P31785 23-254)
T1 construct: Bought protein injected over the CD127/IL-7 complex in Biacore; also called common γ chain
T1 sequence (looked up): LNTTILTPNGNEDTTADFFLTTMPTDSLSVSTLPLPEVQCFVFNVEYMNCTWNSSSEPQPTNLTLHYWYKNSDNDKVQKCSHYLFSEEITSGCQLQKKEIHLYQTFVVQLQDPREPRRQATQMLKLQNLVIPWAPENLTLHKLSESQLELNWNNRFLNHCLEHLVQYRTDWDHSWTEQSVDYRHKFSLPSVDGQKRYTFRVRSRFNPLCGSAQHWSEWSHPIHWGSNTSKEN

T2: CD127 (Sinobiological, 10975-H03H-50) (UniProt P16871 21-239)
T2 construct: Bought protein, immobilised on the CM5 chip for Biacore; also called CD127 receptor; IL-7Rα
T2 sequence (looked up): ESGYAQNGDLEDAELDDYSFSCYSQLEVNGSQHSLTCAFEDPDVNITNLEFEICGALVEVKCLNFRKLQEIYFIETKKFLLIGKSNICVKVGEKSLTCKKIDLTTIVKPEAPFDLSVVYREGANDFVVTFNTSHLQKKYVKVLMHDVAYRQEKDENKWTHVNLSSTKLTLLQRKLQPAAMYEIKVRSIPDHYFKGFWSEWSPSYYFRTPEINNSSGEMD

T3: Human recombinant PD-L2 (human, UniProt Q9BQ51 20-219, limits assumed)
T3 construct: Immobilised on the CM5 biochip; also called human PD-L2 recombinant protein
T3 sequence (looked up): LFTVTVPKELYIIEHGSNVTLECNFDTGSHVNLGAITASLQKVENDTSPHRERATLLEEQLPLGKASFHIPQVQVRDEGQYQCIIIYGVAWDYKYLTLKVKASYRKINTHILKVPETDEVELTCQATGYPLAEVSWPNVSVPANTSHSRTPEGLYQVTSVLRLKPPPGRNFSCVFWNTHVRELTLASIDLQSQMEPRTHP

B1: recombinant human PD-1 (Example 2) (receptor)
chain: not shown
modifications: biotinylated in the PD-L1 ELISA (site not stated)
notes: Biotinylated form in the ELISA on PD-L1; recombinant human PD-1 (100 nM) in the Biacore assay on PD-L2; also called biotinylated recombinant human PD-1; PD-1 recombinant protein

What was measured:
[1] = target: T4, Recombinant hPD1-His (Sino Biologicals, reference 10377-H08H) (human, UniProt Q15116 fragment); assay: ELISA: human recombinant PD-1 coated, anti-human Fc peroxidase, TMB [FOLLOWING) B]
T4 construct: also called human recombinant PD-1 (rPD1) protein; PD-1 receptor
Procedure: Revelation was performed with an anti-human Fc antibody coupled to peroxidase. Colorimetry was determined at 450 nm using TMB substrate. […] C.

[2] = target: T1, CD132 receptor (Sinobiological …); assay: Biacore, CD132 injected over the CD127/IL-7 complex on the chip
Procedure: (§1) CD127 (Sinobiological, 10975-H03H-50) was immobilized onto a CM5 biochip at 20 μg/ml and the indicated protein were added at serial concentrations (0.34; 1.03; 3.11; 9.3; 28 nM).

[3] = target: T2, CD127 (Sinobiological, 10975-H03H-50); assay: Biacore, CD127 immobilised on CM5 chip; bivalent model
Procedure: as §1

Human recombinant PD-L2 = target: T3, Human recombinant PD-L2; assay: Biacore: PD-L2 immobilised on a CM5 chip, PD-1 at 100 nM
Source text: Data are represented in % of relative response of interaction as measured by Biacore: 100%=PD-1 relative response.
Chimeric forms of PD-1 antibodies were used in this test. […] Data are represented in % of relative response of interaction as measured by Biacore: 100%=PD-1 relative response. Chimeric forms of the PD-1 antibodies were used in this experiment.

[4] = target: B1; assay: competition ELISA: PD-L1 coated, antibody mixed with biotinylated PD-1 at 0.6 ug/mL, streptavidin peroxidase; blocked ligand PD-L1

| EC50 (read off the curve) [1] [ng/mL] | Kd [2] [nM] | Kd [3] [nM] | binding result (Human recombinant PD-L2) | IC50 (read off the curve) [4] [nM] | Binder |
| --- | --- | --- | --- | --- | --- |
| ~3 | – | – | – | – | anti-PD1VHandVL-IL7, chimeric Bicki (other, not shown: small tags and cut ends, also called chimeric anti-PD1 antibody fused to IL7 on its heavy and light chain) heavy: QIQLVQSGPELKKPGETVKISCKASGYTFTHYGMNWVKQAPGKGLKWMGWINTNTGEPTYAEEFKGRFAFSLETSASAAFLQINNLKNEDTATYFCAKEREPGMDSWGQGTSVTVSSASTKGPSVFPLAPCSRSTSESTAALGCLVKDYFPEPVTVSWNSGALTSGVHTFPAVLQSSGLYSLSSVVTVPSSSLGTKTYTCNVDHKPSNTKVDKRV[here human IgG4 Fc with S228P L445P (EU numbers) without letters]DCDIEGKDGKQYESVLMVSIDQLLDSMKEIGSNCLNNEFNFFKRHICDANKEGMFLFRAARKLRQFLKMNSTGDFDLHLLKVSEGTTILLNCTGQVKGRKPAALGEAQPTKSLEENKSLKEQKKLNDLCFLKRLLQEIKTCWNKILMGTKEH light: DVLLTQTPLSLPVSLGDQASISCRSSQNIVHANGNTYLEWYLQKPGQSPKLLIYKVSNRFSGVPDRFSGSGSGTDFTLKITRVEAEDLGVYYCFQGSHVPNTFGGGTKLEIKRTVAAPSVFIFPPSDEQLKSGTASVVCLLNNFYPREAKVQWKVDNALQSGNSQESVTEQDSKDSTYSLSSTLTLSKADYEKHKVYACEVTHQGLSSPVTKSFNRGECDCDIEGKDGKQYESVLMVSIDQLLDSMKEIGSNCLNNEFNFFKRHICDANKEGMFLFRAARKLRQFLKMNSTGDFDLHLLKVSEGTTILLNCTGQVKGRKPAALGEAQPTKSLEENKSLKEQKKLNDLCFLKRLLQEIKTCWNKILMGTKEH |
| ~5 | 470 | 1.2 | – | – | anti-PD1VL-IL7, chimeric form (other, Antibody-cytokine fusion, IL-7 on the light chain; also called Bicki anti-PD1VL-IL7) heavy: QIQLVQSGPELKKPGETVKISCKASGYTFTHYGMNWVKQAPGKGLKWMGWINTNTGEPTYAEEFKGRFAFSLETSASAAFLQINNLKNEDTATYFCAKEREPGMDSWGQGTSVTVSSASTKGPSVFPLAPCSRSTSESTAALGCLVKDYFPEPVTVSWNSGALTSGVHTFPAVLQSSGLYSLSSVVTVPSSSLGTKTYTCNVDHKPSNTKVDKRV[here human IgG4 Fc with S228P L445P (EU numbers) without letters] light: DVLLTQTPLSLPVSLGDQASISCRSSQNIVHANGNTYLEWYLQKPGQSPKLLIYKVSNRFSGVPDRFSGSGSGTDFTLKITRVEAEDLGVYYCFQGSHVPNTFGGGTKLEIKRTVAAPSVFIFPPSDEQLKSGTASVVCLLNNFYPREAKVQWKVDNALQSGNSQESVTEQDSKDSTYSLSSTLTLSKADYEKHKVYACEVTHQGLSSPVTKSFNRGECGGGGSGGGGSGGGGSDCDIEGKDGKQYESVLMVSIDQLLDSMKEIGSNCLNNEFNFFKRHICDANKEGMFLFRAARKLRQFLKMNSTGDFDLHLLKVSEGTTILLNCTGQVKGRKPAALGEAQPTKSLEENKSLKEQKKLNDLCFLKRLLQEIKTCWNKILMGTKEH |
| – | – | – | binds | – | B1 |
| ~6 | 323 | 0.9 | – | ~3 | anti-PD1VH-IL7, chimeric form (other, Antibody-cytokine fusion; also called Bicki anti-PD1VH-IL7; chimeric Bicki) heavy: QIQLVQSGPELKKPGETVKISCKASGYTFTHYGMNWVKQAPGKGLKWMGWINTNTGEPTYAEEFKGRFAFSLETSASAAFLQINNLKNEDTATYFCAKEREPGMDSWGQGTSVTVSSASTKGPSVFPLAPCSRSTSESTAALGCLVKDYFPEPVTVSWNSGALTSGVHTFPAVLQSSGLYSLSSVVTVPSSSLGTKTYTCNVDHKPSNTKVDKRV[here human IgG4 Fc with S228P L445P (EU numbers) without letters]GGGGSGGGGSGGGGSDCDIEGKDGKQYESVLMVSIDQLLDSMKEIGSNCLNNEFNFFKRHICDANKEGMFLFRAARKLRQFLKMNSTGDFDLHLLKVSEGTTILLNCTGQVKGRKPAALGEAQPTKSLEENKSLKEQKKLNDLCFLKRLLQEIKTCWNKILMGTKEH light: DVLLTQTPLSLPVSLGDQASISCRSSQNIVHANGNTYLEWYLQKPGQSPKLLIYKVSNRFSGVPDRFSGSGSGTDFTLKITRVEAEDLGVYYCFQGSHVPNTFGGGTKLEIKRTVAAPSVFIFPPSDEQLKSGTASVVCLLNNFYPREAKVQWKVDNALQSGNSQESVTEQDSKDSTYSLSSTLTLSKADYEKHKVYACEVTHQGLSSPVTKSFNRGEC |
